This note sets out measurements from publication PMC11602027.

Results are given in words; binding and its absence hold for the method and conditions named. In cells and extracts the contact can be indirect. Some results given as binding are weak or reduced against the parent protein; the word gives no strength. Where a sequence is shown, tags or fusion partners need not be part of it.

Assay [1] addresses T1, GFP-tagged Tea4 (S. pombe) (UniProt O60132).
T1 sequence: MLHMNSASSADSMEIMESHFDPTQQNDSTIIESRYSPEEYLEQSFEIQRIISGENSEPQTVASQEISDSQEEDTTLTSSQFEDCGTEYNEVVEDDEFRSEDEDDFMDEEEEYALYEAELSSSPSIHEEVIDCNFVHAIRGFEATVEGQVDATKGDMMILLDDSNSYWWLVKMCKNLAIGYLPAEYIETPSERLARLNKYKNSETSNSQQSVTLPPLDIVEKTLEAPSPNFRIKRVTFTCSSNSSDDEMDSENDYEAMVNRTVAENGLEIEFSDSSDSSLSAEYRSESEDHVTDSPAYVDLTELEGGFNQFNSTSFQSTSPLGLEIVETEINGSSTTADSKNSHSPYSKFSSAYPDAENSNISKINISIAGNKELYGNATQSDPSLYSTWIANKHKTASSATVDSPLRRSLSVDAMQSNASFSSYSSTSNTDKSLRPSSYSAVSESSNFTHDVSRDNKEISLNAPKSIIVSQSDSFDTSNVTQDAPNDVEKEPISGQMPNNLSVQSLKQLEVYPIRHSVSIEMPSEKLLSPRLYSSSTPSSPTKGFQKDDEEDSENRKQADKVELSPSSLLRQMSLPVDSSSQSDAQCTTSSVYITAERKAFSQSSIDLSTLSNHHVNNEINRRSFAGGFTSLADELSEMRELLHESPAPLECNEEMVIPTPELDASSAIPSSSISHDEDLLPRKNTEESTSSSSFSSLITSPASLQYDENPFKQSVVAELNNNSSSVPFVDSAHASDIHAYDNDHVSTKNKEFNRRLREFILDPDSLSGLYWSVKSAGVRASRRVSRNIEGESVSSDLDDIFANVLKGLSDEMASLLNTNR
The experiment in a line: co-IP; S. pombe extracts (10 mM Tris-HCl pH 7.5, 150 mM NaCl, 0.5 mM EDTA, 0.5% NP40) precipitated with GFP-Trap magnetic beads, 1 h at 4°C; blotted with anti-HA or anti-GFP.

The next assay concerns the target T2, Tea1-GFP (S. pombe) (UniProt P87061).
T2 sequence: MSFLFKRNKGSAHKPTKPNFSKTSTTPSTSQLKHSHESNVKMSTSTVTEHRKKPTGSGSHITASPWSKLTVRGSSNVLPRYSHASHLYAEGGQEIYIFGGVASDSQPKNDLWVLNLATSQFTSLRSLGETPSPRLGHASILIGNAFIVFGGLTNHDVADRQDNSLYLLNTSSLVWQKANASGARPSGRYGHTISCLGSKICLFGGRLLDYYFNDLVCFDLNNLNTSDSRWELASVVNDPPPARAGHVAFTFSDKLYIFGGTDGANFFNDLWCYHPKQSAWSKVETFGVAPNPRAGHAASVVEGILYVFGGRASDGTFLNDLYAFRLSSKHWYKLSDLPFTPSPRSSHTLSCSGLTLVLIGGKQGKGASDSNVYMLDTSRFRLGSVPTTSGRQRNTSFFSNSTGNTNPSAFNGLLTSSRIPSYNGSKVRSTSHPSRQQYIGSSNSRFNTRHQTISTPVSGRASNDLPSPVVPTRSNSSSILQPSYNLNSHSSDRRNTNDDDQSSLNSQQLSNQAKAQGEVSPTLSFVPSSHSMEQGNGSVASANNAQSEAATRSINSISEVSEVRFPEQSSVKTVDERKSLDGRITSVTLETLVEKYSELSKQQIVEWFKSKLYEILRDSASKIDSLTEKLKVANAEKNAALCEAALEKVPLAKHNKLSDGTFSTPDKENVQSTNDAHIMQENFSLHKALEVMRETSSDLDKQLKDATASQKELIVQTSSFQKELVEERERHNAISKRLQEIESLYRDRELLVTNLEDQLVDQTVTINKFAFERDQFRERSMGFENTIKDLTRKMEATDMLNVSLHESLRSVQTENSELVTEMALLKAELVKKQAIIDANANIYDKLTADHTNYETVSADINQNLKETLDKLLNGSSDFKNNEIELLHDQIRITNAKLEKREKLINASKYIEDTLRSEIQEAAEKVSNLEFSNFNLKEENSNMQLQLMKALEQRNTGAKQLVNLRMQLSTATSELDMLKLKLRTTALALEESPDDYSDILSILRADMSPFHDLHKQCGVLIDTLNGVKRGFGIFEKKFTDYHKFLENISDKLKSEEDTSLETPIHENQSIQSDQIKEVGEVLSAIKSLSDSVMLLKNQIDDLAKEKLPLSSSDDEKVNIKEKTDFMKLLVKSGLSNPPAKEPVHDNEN
The assay is described as above.

Another assay deals with T3, GST-Tea4 (S. pombe) (UniProt O60132).
T3 sequence: T1 sequence
Kind of assay: pull-down; 2 to 10 μg GST-tagged protein purified from E. coli and coupled to GS beads, incubated 2 h with S. pombe cell extracts (2 to 3 mg total protein; 50 mM Tris-HCl pH 7.5, 20 mM NaCl, 0.5% NP-40, 10% glycerol); blotted with anti-HA or anti-GFP; GS beads alone as control; only the target purified.

B1: HA-tagged Rgf1 (protein, UniProt Q9Y7U6 1-1334)
chain: MDYRHPNALGVNESSRAYEEIFGAPRKREPARTVSTPAFMEPAPVSKKPLPPPTRRLPRKPLPFRSTSLQPPSSQPPAPPTHQREASPVKNIEHSESFPSVFGTSNNHQIVPLTLKDGNDFGALYASLNTTPHFPQVSNHAPNNSNSPSLTWHTSSGDDSNQNPFFVRRQSQSSTSPVSDSVDENLLSAVSSVTESVETNLHLDQNYPYGSPVRSSKNPFLSSNSRLPTDDSSHTVGSHSFTSGTHPPIVSSNSAFTLPNAVTPAAQAPLIRSVSEYPANVSPPAQSLQLPKSTSNPADLHLSIASASSHKNIFSGLDVFSNVFHGPSTTLRDREHDMRNRSFDHSTLAHYEAVKQQRLGVEPTARSFTLSSYKSRASGNSLINDRSSTTTPTFVNSEASSPVHKNKRRRRIYAALLSRVASELLDRLQLGDITKDGLIYSNAFTGDHAVTVLMGIIHTSDRNLALLVGRSLDAQKFIHDVTYDHRLRDSHREIYQLQGTGYRPFLRANDNASINNKNHHKELEDNESGTRISPSTLGDTSFPNGIFTLLTHCYSPTCAKDHPCYSISCPRRLEQQHRLFAKMRANTEQSSSLAFDDKEQKLWIHSVPQEIAYSVSDRERKRQEVICEVIYTERDFVKDLEYLRDYWIKPLWASSCIPERKKEKFIRTVFLNALEVQAVNSKLAEALTKRQNYKPIVDNIADIFLEHVPKFEPFIRYGAGQLYGKYEFEKEKSSNPAFAKFVSDVERLKESRKLELNGYLTKPTTRLARYPLLLEAVLKYTDEGNPDKQDIPKVINIVRGFLSRLNVESGKAENKFNLFHLNQQLVFKPGEHYDLHLLDANRQLIFKGPLKKRSAGSTSSESASDVTLFLFDHALLIVKPKTINKRELLKVFQRPIPLLLLQLFLVDDNGLRIPYSSKQQLAAVSKAANGKPPSRFYPFSLQLLGRRGYEITLYATTEVSRDKWLEHIDNQQTLLQHRNQWFESVTICSNFFVGDNKVNAIGVYDSGRRLLYGTDTGVYVSLRKANSPLQFKPVRALNIPNISQLEVIEEYSLLLLLSDKVLYSYPLEMIDADTTQAPKKARKVSGHTTFFRVGICLGKVLVCAVKSSVLSATIKVFEPVTNYSKTRNMPSLKKFLTVNQDPLRIVKELYIPTESTSVHFLKNKLCVGCTRGFEVVSLDNLETQSLLDPADTSLEFVEKKENVKPIAIYRMNGGEFLLCYSQFAFYVNRDGWRSRPTWFVVWEGSPQNFALSYPYILAFEPTFIEIRHVETSELIHVISGRNIRLLADGRGKLGDGGEIFYACDQRGENCETSVVCSLRLTSAAAHAKEQHVDK
As to B1, the figures for the binding result (in assay [1]; with Tea1-GFP (S. pombe); in the assay with GST-Tea4 (S. pombe)) were “binds”, “no binding” and “binds”, respectively.
